Experimental data reported in ChEMBL document CHEMBL4888484, “Replenishing the malaria drug discovery pipeline: Screening and hit evaluation of the MMV Hit Generation Library 1 (HGL1) against asexual blood stage Plasmodium falciparum ,using a nano luciferase reporter read-out” (2022).
Among all 150,000 compounds or so, about 540 (0.36%) showed an effect of 50% or more. The list shows a part of the results.

Each compound was assayed on Plasmodium falciparum (assay: Primary screen in NF54 nanoGlo assay, in single point, at 2uM, 72h; a lower Z score goes with more inhibition). Conditions: timepoint 72 hour.
Assay type: functional, Erythrocyte
`CCCc1nnsc1C(=O)N[C@@H]1COCC[C@@H]1Oc1ccc(C)nc1` was tested, and the “% Inhibition” value was -6% and the Z score was 0.66. For `C=CC[C@H](CC)NC(=O)Nc1c(CC)noc1C`, the “% Inhibition” value was -5% and the Z score was 0.52. For `O=S(=O)(NCc1ccc2sccc2c1)N1CCCC1`, the “% Inhibition” value was -17% and the Z score was 2.56. In the case of `O[C@H]1Cc2ccccc2C12CCN(Cc1ccc(-c3cc[nH]n3)o1)CC2`, the “% Inhibition” value is reported as -3% and the Z score is reported as 0.53. For `Cc1ccc2nc(N3CCC[C@H](O)C3)c(CN3CC(O)C3)cc2c1`, the “% Inhibition” value was -11% and the Z score was 1.93. With `Cc1ccc(N(C(=O)c2cnc3ccccc3n2)C2CCCCC2)nc1` the “% Inhibition” value was -7% and the Z score was 1.06. For `Cc1[nH]nc(CCc2ncnn2CCc2ccccc2)c1C`, the “% Inhibition” value was -10% and the Z score was 1.36. For `NC(=O)c1nccnc1C(=O)NC1CCCC1c1ccc(Cl)cc1` (stereo not drawn), the “% Inhibition” value was -14% and the Z score was 2.2. In the case of `COc1cccc(Cn2c(C)c(C3=CCN(S(=O)(=O)c4c(C)noc4C)CC3)c3ccccc32)c1`, the “% Inhibition” value is reported as -5% and the Z score is reported as 0.62. For `Cc1cc(Oc2ncccn2)ccc1NC(=O)c1n[nH]c2ccccc12`, the “% Inhibition” value was 4% and the Z score was -0.6. With `Nc1cncc(-c2cnc3[nH]ccc3c2)c1` the “% Inhibition” value was -6% and the Z score was 0.8. `O=C1C[C@H](c2nc(C3CCC3)no2)CN1c1cccc(O)c1` was tested, and the “% Inhibition” value was -17% and the Z score was 3.32. In the case of `O=C(Nc1cccc(-c2noc(-c3cccnc3)n2)c1)c1cccs1`, the “% Inhibition” value is reported as -24% and the Z score is reported as 2.15. For `Nc1ncc(-c2cc(F)ccc2OC[C@H]2CCOC2)cn1`, the “% Inhibition” value was 0% and the Z score was -0.02. `Oc1ccc2c(c1)Oc1ncn3nc(-c4ccccc4)nc3c1[C@H]2c1ccccc1` was tested, and the “% Inhibition” value was 27% and the Z score was -3.06. With `O=C(CC1CCCC1)NCC1CCOCC1` the “% Inhibition” value was -4% and the Z score was 0.72. In the case of `O=C(Nc1cccc2ccccc12)c1nn2c(C(F)(F)F)cc(-c3ccccc3)nc2c1Br`, the “% Inhibition” value is reported as -15% and the Z score is reported as 2.43. With `O=C(Nc1ccc2c(c1)OCO2)c1ccc(COc2ccc3c(c2)CCC3)o1` the “% Inhibition” value was 5% and the Z score was -0.61. In the case of `CCOC1CC(NC(=O)NCC2(CO)CC2)C12CCCC2` (stereo not drawn), the “% Inhibition” value is reported as -3% and the Z score is reported as 0.43. In the case of `CC(=O)N1CCN(C(=O)Nc2cccc3c2CCCC3)CC1`, the “% Inhibition” value is reported as -7% and the Z score is reported as 0.97. In the case of `Cc1ccc(Nc2nc(N)nc(COC(=O)c3ccc(N4CCOCC4)nc3)n2)cc1`, the “% Inhibition” value is reported as -15% and the Z score is reported as 1.93. In the case of `CCn1nccc1C(=O)Nc1nc2cc3c(cc2s1)OCCO3`, the “% Inhibition” value is reported as -5% and the Z score is reported as 0.94. `COc1cc(CNn2nnnc2N)cc(Br)c1OCc1ccc(F)cc1` was tested, and the “% Inhibition” value was -13% and the Z score was 1.47. `Cc1noc([C@@H]2CCCN2S(=O)(=O)CCC2CC2)n1` was tested, and the “% Inhibition” value was 21% and the Z score was -2.64. In the case of `Cc1cc(CN(C)[C@H]2CCN(CC(F)(F)F)C2=O)no1`, the “% Inhibition” value is reported as 3% and the Z score is reported as -0.41. `CC(=O)N1CCC[C@](c2nnnn2CCC(C)C)(N2CCN(c3ccccc3F)CC2)C1` was tested, and the “% Inhibition” value was 0% and the Z score was 0.05. For `CCc1cc(-c2ccc(C(=O)N[C@H]3CC[C@H](O)CC3)cc2)nc(N(C)C)n1`, the “% Inhibition” value was -5% and the Z score was 0.71. `C[C@H]1CN(CC(C)(C)O)CCN1C(=O)NCC1CC(F)(F)C1` was tested, and the “% Inhibition” value was -9% and the Z score was 1.45. For `Cc1cc(O)n2nc(Cc3nc(-c4ccccc4C(F)(F)F)no3)nc2n1`, the “% Inhibition” value was 1% and the Z score was -0.21. `O=S(=O)(N[C@H]1CCCN(C2CCCCCC2)C1)c1cc2ccccc2o1` was tested, and the “% Inhibition” value was -7% and the Z score was 1.36. With `CCN(C[C@H](C)C#N)C(=O)c1cc(F)cc(Cl)c1O` the “% Inhibition” value was -10% and the Z score was 0.99. In the case of `COc1cc(CNc2ncc(C(N)=O)s2)cc(OC)c1OC`, the “% Inhibition” value is reported as -5% and the Z score is reported as 0.75. With `C=CCN(C)C(=O)c1cnn2c3c(cnc12)CCCCCC3` the “% Inhibition” value was -4% and the Z score was 0.64. For `Cc1ccc(-c2cn3ccn(-c4ccc5c(c4)CCC5)c(=O)c3n2)c(C)c1`, the “% Inhibition” value was -17% and the Z score was 2.29. For `COC(=O)[C@@H]1CN(C(=O)c2ccn(C)n2)c2ccc(F)cc2O1`, the “% Inhibition” value was -10% and the Z score was 1.98. In the case of `Cc1ccc(O)c(NC(=O)c2nn3c(c2Cl)N[C@@H](c2cccs2)C[C@H]3C(F)(F)F)c1`, the “% Inhibition” value is reported as 8% and the Z score is reported as -1.22. With `COCCN1C(=O)c2ccccc2C(C(=O)NCCN2CCOCC2)C1c1ccc(F)cc1` (stereo not drawn) the “% Inhibition” value was 1% and the Z score was -0.2. In the case of `Cc1noc2ncnc(NC[C@H]3Cc4ccccc43)c12`, the “% Inhibition” value is reported as -6% and the Z score is reported as 1. With `O=C(Cc1noc(C2(c3ccccc3)CC2)n1)NC1CCCCC1` the “% Inhibition” value was -8% and the Z score was 1.04. `O=C(Nc1ccc(Oc2nncc3ccccc23)cc1)C(F)F` was tested, and the “% Inhibition” value was 43% and the Z score was -3.86. With `Cc1nn(C)c2nc(N3CCC(C#N)CC3)sc12` the “% Inhibition” value was -7% and the Z score was 1.23. In the case of `C[C@@H](C(=O)NCc1cccs1)N(C)Cc1cccc(Cl)c1Cl`, the “% Inhibition” value is reported as 6% and the Z score is reported as -0.88. `Cn1cccc1C(=O)NCc1cccc(NC(=O)c2cccn2C)c1` was tested, and the “% Inhibition” value was -10% and the Z score was 1.23. For `Cc1nc2c(c(N(C)Cc3nnc4n3CCN(C)C4=O)n1)CCCC2`, the “% Inhibition” value was -7% and the Z score was 1.21. `O=C(NCCCn1nccc1C1CC1)c1cnn[nH]1` was tested, and the “% Inhibition” value was 2% and the Z score was -0.32. With `COc1ccc(CCC(=O)N2CC(OCc3ccc(F)cc3Cl)C2)cc1` the “% Inhibition” value was -24% and the Z score was 2.24. With `Cn1c(=O)c(-c2ccc(C(=O)NCc3cc(F)cc(F)c3)cc2)nc2cccnc21` the “% Inhibition” value was -3% and the Z score was 0.49. For `Cc1cccc(C(=O)N2CC[C@@H]3OCC(=O)N[C@H]3C2)c1C`, the “% Inhibition” value was -1% and the Z score was 0.21. In the case of `O=C(C[C@H]1CCOC2(CCN(C(=O)c3cccc4[nH]ccc34)CC2)C1)N1CCCC1`, the “% Inhibition” value is reported as -8% and the Z score is reported as 0.87. With `O=c1[nH]c(-c2ccccc2)c[n+]2ccccc12` the “% Inhibition” value was 5% and the Z score was -0.64. For `CCn1c(=O)n(Cc2cnc(C)s2)c2ccccc21`, the “% Inhibition” value was -8% and the Z score was 1.29. In the case of `COc1ccc(-c2cnc3ncnn3c2N2CCCN(S(=O)(=O)c3ccc(F)cc3F)CC2)cc1OC`, the “% Inhibition” value is reported as -12% and the Z score is reported as 1.17. For `O=C(C#Cc1ccccc1)N(CC1CCN(Cc2ccccc2F)CC1)C[C@H]1CCCO1`, the “% Inhibition” value was 1% and the Z score was -0.14. For `CS(=O)(=O)NCCN(Cc1csc(C2CC2)n1)C1CC1`, the “% Inhibition” value was -6% and the Z score was 0.77. With `C[C@@H](CS(C)(=O)=O)NC(C)(C)Cc1cccc(Br)c1` the “% Inhibition” value was -3% and the Z score was 0.48. `Cc1noc(C)c1Cc1nnc2sc(C3CC3)nn12` was tested, and the “% Inhibition” value was -8% and the Z score was 0.84. With `Cc1nc(CN2CCN(S(=O)(=O)c3ccc(C(N)=O)o3)CC2)nc2ccccc12` the “% Inhibition” value was -10% and the Z score was 0.94. In the case of `O=C(NC[C@H]1Cn2cc(-c3ccc4c(c3)OCCCO4)nc2CO1)c1cccs1`, the “% Inhibition” value is reported as 12% and the Z score is reported as -1.4. With `CCn1nc2nc(Nc3cc(C)cc(C)c3)cc(C)n2c1=O` the “% Inhibition” value was -19% and the Z score was 2.06. With `CN(c1cccc(NC(=O)c2ccccc2)c1)S(C)(=O)=O` the “% Inhibition” value was -19% and the Z score was 2.43. In the case of `CC(C)CCC1CCN([C@@H](C)C(=O)O)CC1`, the “% Inhibition” value is reported as -2% and the Z score is reported as 0.19. With `Cc1cc(C)n(-c2ccc(C(N)=NO[C@H]3CCCc4ccc(F)cc43)cn2)n1` the “% Inhibition” value was 15% and the Z score was -1.61. `C=CCNC(=O)C1(NC(=O)c2cc(Cn3cc(C)cn3)on2)CCCCC1` was tested, and the “% Inhibition” value was 2% and the Z score was -0.32. With `CC(C)c1ccc(CN2CCCN(c3ccc(NC(=O)c4ccc(F)cc4F)cc3)C2=O)cc1` the “% Inhibition” value was -3% and the Z score was 0.28. With `Cc1cnc(NCCc2nc3ccccc3c(=O)[nH]2)nc1-c1ncnn1C` the “% Inhibition” value was -9% and the Z score was 1.29. For `CCc1nsc(N2CCCC(C)C2CO)n1` (stereo not drawn), the “% Inhibition” value was -5% and the Z score was 0.7. `CCOC(=O)C1CCN(C(=O)[C@H](C)NC(=O)c2cc3n(n2)CCCN(Cc2cccc(C)c2)C3=O)CC1` was tested, and the “% Inhibition” value was -7% and the Z score was 0.83. With `COC(=O)[C@]1(C)CN(C(=O)Nc2c[nH]nc2-c2nccs2)C[C@H]1C` the “% Inhibition” value was 7% and the Z score was -1.07. With `CCCOc1cccc2c(NC[C@H]3CC(=O)N(C4CC4)C3)ccnc12` the “% Inhibition” value was -3% and the Z score was 0.49. With `CO[C@@H](CNS(=O)(=O)c1c(C)csc1C(=O)O)C1CCCC1` the “% Inhibition” value was -6% and the Z score was 1.16. `COc1cc(NC(=O)c2ccccc2)c(C(=O)N2CCN(c3ccccc3)CC2)cc1OC` was tested, and the “% Inhibition” value was -9% and the Z score was 1.79. `O=C(NCc1cc(F)c(Cl)cc1F)N1C2CCC1CC(O)C2` (stereo not drawn) was tested, and the “% Inhibition” value was -1% and the Z score was 0.27. For `Cc1cc(C(F)(F)F)nc2[nH]nc(N3C(=O)C4CCCCC4C3=O)c12` (stereo not drawn), the “% Inhibition” value was 5% and the Z score was -0.68. `Fc1ccc2nc(C3CC3)cc(-c3nc([C@H]4CCOC4)no3)c2c1` was tested, and the “% Inhibition” value was -4% and the Z score was 0.56. In the case of `O=C(Nc1ccccc1N1CCCC1)[C@H]1CCCN(C(=O)c2ccoc2)C1`, the “% Inhibition” value is reported as -13% and the Z score is reported as 1.46. With `CO[C@H]1CCN(C(=O)CC(=O)Nc2cccc(Cl)c2C)C1` the “% Inhibition” value was 2% and the Z score was -0.44. With `CC(C)CN1C(=O)CC[C@@H]2CN(C(=O)c3cc[nH]n3)CC[C@@H]21` the “% Inhibition” value was -7% and the Z score was 1.48. With `Cc1ccc(CN2CCCN(C(=O)C3CCN(S(=O)(=O)c4ccc(C)cc4C)CC3)CC2)cc1` the “% Inhibition” value was 25% and the Z score was -3.17. With `c1ccc(-c2nc(CNC[C@H]3CN(C4CC4)CCO3)cs2)nc1` the “% Inhibition” value was 14% and the Z score was -2.17. For `O=S(=O)(CCCN1CCOCC1)NCc1cc(F)ccc1F`, the “% Inhibition” value was -5% and the Z score was 0.91. `NC(=O)c1cccnc1NCCN1CCCC[C@@H]1CO` was tested, and the “% Inhibition” value was -2% and the Z score was 0.23. For `COc1ccc(CN[C@H]2[C@H](O)[C@H](O)C[C@@H]2c2ccc(N3CCOCC3)nc2)cn1`, the “% Inhibition” value was 26% and the Z score was -2.97. With `c1cnc(-c2nc(Cn3cnnc3)cs2)nc1` the “% Inhibition” value was -9% and the Z score was 1.18. With `CN(C)C(=O)N1CCC(c2nc(C3CC3)nn2Cc2ccc(F)cc2)CC1` the “% Inhibition” value was -7% and the Z score was 1.35.
